# Source: PubChem BioAssay AID686978 (National Center for Advancing Translational Sciences (NCATS), 2013)
# The whole screen tested about 420,000 compounds, of which about 64,000 (15%) were called active. The shares of active, inactive and inconclusive entries below differ from those in the screen. Calls come from the whole dose curve; as a rule, active = well fitted inhibition curve with a large enough effect; inconclusive = small, poorly fitted or top-dose-only effect; inactive = flat fitted curve, though single readings scatter. Potencies of inconclusive entries are left out as doubtful fits.
# Test: qHTS for Inhibitors of human tyrosyl-DNA phosphodiesterase 1 (TDP1): qHTS in cells in absence of CPT; note: nearly all actives have a fitted effect of over 55% in size
# Details: DT40 Tdp1-/- hTDP1 cells, no CPT, ATP luminescence, 48 h; activity change, negative = growth inhibition: at 46.2 µM (top of the series)
# In short: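 Compound effects on proliferation are scored in DT40 Tdp1-/-;hTDP1 cells in the absence of CPT. ATP levels (CellTiter-Glo luminescence) are recorded after a ≥48 hr, 37 °C incubation.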
# % is set by controls: 0 for no effect and ±100 for the full control effect; potency is the fitted concentration of half-maximal effect; tags give direction and shape of the fitted curve.
SMILES,Potency,"activity change, negative = growth inhibition"
Cc1cccc(NC(=O)N(C)Cc2cccs2)c1,inactive,
CCOC(=O)C1=C(N)OC2=C(C(=O)CCC2)C1c1ccccc1OC (stereo not given),inactive,
COc1ccc(S(=O)(=O)NC(=O)C2(C)CCN2C(=O)CCC2CCCC2)cc1OC (stereo not given),inactive,
CCOc1ccc(NC(=O)Cn2c(=O)cc(C)c3c(C)nn(-c4ccc(CC)cc4)c32)cc1,"inconclusive [inhibitor, full curve]",
Cc1nc(C(=O)NNC(=O)c2ccccc2Cl)c(C(F)(F)F)o1,inactive,
CSc1ccccc1NC(=O)Cc1ccccc1[N+](=O)[O-],inactive,
CCc1ccc(CCC(=O)Nc2ccc(OC)cc2)o1,inactive,
CN(C)c1ccc(N2C(=O)CC(c3ccccc3)CC2=O)cc1,inactive,
CC(C)(C)C(=O)CN1C(=O)NC(c2ccccc2)(c2ccccc2)C1=O,"inconclusive [inhibitor, single point]",
O=c1c2ccccc2n2c(-c3ccc(C(F)(F)F)cc3)nnc2n1Cc1ccccc1,"inconclusive [inhibitor, single point]",
CN(C(=O)COC(=O)c1ccccc1C(=O)N1CCN(c2ccccc2)CC1)c1ccccc1,"inconclusive [inhibitor, partial curve]",
Cc1cc(OCC(=O)N2CCN(c3ccccc3)CC2)c2c(C)cc(=O)oc2c1,"inconclusive [inhibitor, full curve]",
COc1ccc(C(=O)/C=C/NCc2ccc(C)cc2)cc1,"inconclusive [inhibitor, single point]",
COC(=O)C1C(=O)NCC1c1ccccc1 (stereo not given),inactive,
FC(F)Oc1ccc(NC(=S)NCc2ccccc2)cc1Cl,"inconclusive [inhibitor, single point]",
CC(C)c1nc2ccc(NC(=O)C34CC5CC(CC(C5)C3)C4)cc2[nH]1,"inconclusive [inhibitor, partial curve]",
COc1ccc(C(=O)CC(=O)C(=O)Nc2cc(C)ccc2C)cc1,"inconclusive [inhibitor, single point]",
N/C(=N\OC(=O)c1ccc2ccccc2c1)c1cccc([N+](=O)[O-])c1,"inconclusive [inhibitor, partial curve]",
Cc1cc2oc(=O)cc(CN3CCN(Cc4ccccc4)CC3)c2cc1C,"inconclusive [inhibitor, single point]",
Cc1cc(C)c2nc(NC(=O)CN3C(=O)NC4(CCCC4)C3=O)sc2c1,"inconclusive [inhibitor, single point]",
C=CCn1c(SCC(=O)Nc2c(C)n(C)n(-c3ccccc3)c2=O)nc2sc(C)c(C)c2c1=O,"inconclusive [inhibitor, partial curve]",
O=C(OCc1nnc(-c2cccs2)o1)c1cccnc1Cl,,inconclusive: 0.277% [inhibitor]
O=C(CCN1C(=O)/C(=C/c2cccc(Br)c2)SC1=S)Nc1cccnc1,"inconclusive [inhibitor, single point]",

SMILES,Potency,"activity change, negative = growth inhibition"
O=C(CSc1nc2c(c(=O)n1-c1ccccc1)SCC2)N1CCN(c2ccccc2)CC1,"inconclusive [inhibitor, single point]",
S=C1NC[C@H](CC2CCCCC2)N1CCCCC1CCCCC1,"inconclusive [inhibitor, single point]",
CCOc1cccc(/C=N/NC(=O)c2cc(-c3cccn3C)n[nH]2)c1O,active: 9.2 µM,
O=C1C2CCCN2C(=O)N1CCCN1CCN(c2cccc(Cl)c2)CC1 (stereo not given),"inconclusive [inhibitor, single point]",
Cc1ccc(S(=O)(=O)N(CC(=O)NCc2cccnc2)C2CCCCC2)cc1,"inconclusive [inhibitor, single point]",
COc1ccc2[nH]c3c(=O)n(CCCCC(=O)N4CCCC4)c(=S)[nH]c3c2c1,inactive,
CCOC(=O)/C=c1\s/c(=C\c2ccc(-c3ccccc3)cc2)c(=O)n1CC(=O)NCc1ccc2c(c1)OCO2,active: 9.2 µM,
COc1ccc(N2CCN(CC(=O)Nc3nnc(-c4ccccc4)s3)CC2)cc1,inactive,
Cc1ccc(NC(=O)C2CCCC2)c(Br)c1,inactive,
COc1cc(-c2nn3c(C4CCCCC4)nnc3s2)cc(OC)c1OC,active: 20.6 µM,
Cc1ccc2cc3c(N)c(C(=O)N4CCOCC4)sc3nc2c1,"inconclusive [inhibitor, single point]",
COc1ccc(C(CNC(=O)c2cccc(S(=O)(=O)Nc3ccc(F)cc3)c2)N2CCCC2)cc1 (stereo not given),"inconclusive [inhibitor, single point]",
O=C(C1CCCCC1)N(Cc1cccnc1)c1nc2ccc(F)cc2s1,"inconclusive [inhibitor, single point]",
Cn1c(NCC(O)CO)nc2c1c(=O)n(Cc1ccc(Cl)c(Cl)c1)c(=O)n2C (stereo not given),"inconclusive [inhibitor, single point]",
CCOC(=O)c1cnc(SCc2cccc(C)c2)nc1N,"inconclusive [inhibitor, single point]",
COC(=O)N/N=C/c1cc(Cl)cc(Cl)c1OCc1ccc(F)cc1,"inconclusive [inhibitor, single point]",
CC(C)(C)c1ccc(C(=O)NNC(=S)NCc2ccco2)cc1,active: 23.1 µM,
CCc1nnc(NC(=O)CSc2nc3ccccc3c(=O)n2CCCOC)s1,inactive,
COc1ccc(S(=O)(=O)N(CC(=O)NCc2ccco2)C2CCCCC2)cc1OC,"inconclusive [inhibitor, partial curve, poor fit]",
Cc1ccc2c(c1)[C@H]1[C@H](CO2)[C@H](c2ccccc2)[C@]2(C)C(=O)N(Cc3ccco3)CC(=O)N12,"inconclusive [inhibitor, single point]",
Cc1ccccc1NC(NC(=O)c1cccs1)C(Cl)(Cl)Cl (stereo not given),"inconclusive [inhibitor, single point]",
Cc1ccccc1Cn1c(C)c(C(=O)NCc2cccc(C(F)(F)F)c2)sc1=O,"inconclusive [inhibitor, single point]",
